# This is one part of the list.
# B1: BDCA-2 (Homo sapiens), Q8WTT0 (protein)
# chain: MVPEEEPQDREKGLWWFQLKVWSMAVVSILLLSVCFTVSSVVPHNFMYSKTVKRLSKLREYQQYHPSLTCVMEGKDIEDWSCCPTPWTSFQSSCYFISTGMQSWTKSQKNCSVMGADLVVINTREEQDFIIQNLKRNSSYFLGLSDPGGRRHWQWVDQTPYNENVTFWHSGEPNNLDERCAIINFRSSEEWGWNDIHCHVPQKSICKMKKIYI
# Tests used:
# Assay in all cases: glycan array binding signal (z-score within array); higher = stronger binding
# Details in all cases: glycan notation: IUPAC condensed, linker removed
# Fuc(a1-2)Gal = molecular target: Fuc(a1-2)Gal
# Outline: (§1)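 Glycan array data were curated from 3228 arrays in the Consortium for Functional Glycomics database and kept only where the protein sequence was available. Glycan names were converted to IUPAC-condensed notation, and columns mapping to the same glycan were averaged. The binding signal is a within-array Z-score, averaged across arrays of the same protein sequence at different concentrations or buffers and across linkers. Negative Z-scores can be read as non-binding.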
# Fuc(a1-2)Gal(b1-3)GalNAc = molecular target: Fuc(a1-2)Gal(b1-3)GalNAc
# Outline: as §1
# [1] = molecular target: Fuc(a1-2)Gal(b1-3)GalNAc(a1-3)[Fuc(a1-2)]Gal(b1-4)Glc
# Outline: as §1
# [2] = molecular target: Fuc(a1-2)Gal(b1-3)GalNAc(a1-3)[Fuc(a1-2)]Gal(b1-4)GlcNAc
# Outline: as §1
# [3] = molecular target: Fuc(a1-2)Gal(b1-3)GalNAc(b1-3)Gal
# Outline: as §1
# [4] = molecular target: Fuc(a1-2)Gal(b1-3)GalNAc(b1-3)Gal(a1-4)Gal(b1-4)Glc
# Outline: as §1
# [5] = molecular target: Fuc(a1-2)Gal(b1-3)GalNAc(b1-4)[Neu5Ac(a2-3)]Gal(b1-4)Glc
# Outline: as §1
# Fuc(a1-2)Gal(b1-3)GlcNAc = molecular target: Fuc(a1-2)Gal(b1-3)GlcNAc
# Outline: as §1
# [6] = molecular target: Fuc(a1-2)Gal(b1-3)GlcNAc(b1-2)Man(a1-3)[Fuc(a1-2)Gal(b1-3)GlcNAc(b1-2)Man(a1-6)]Man(b1-4)GlcNAc(b1-4)GlcNAc
# Outline: as §1
# [7] = molecular target: Fuc(a1-2)Gal(b1-3)GlcNAc(b1-2)Man(a1-3)[Fuc(a1-2)Gal(b1-3)GlcNAc(b1-2)Man(a1-6)]Man(b1-4)GlcNAc(b1-4)[Fuc(a1-6)]GlcNAc
# Outline: as §1
# [8] = molecular target: Fuc(a1-2)Gal(b1-3)GlcNAc(b1-3)Gal(b1-4)Glc
# Outline: as §1
# [9] = molecular target: Fuc(a1-2)Gal(b1-3)GlcNAc(b1-3)GalNAc
# Outline: as §1
# [10] = molecular target: Fuc(a1-2)Gal(b1-3)GlcNAc(b1-3)[Fuc(a1-2)Gal(b1-3)GlcNAc(b1-6)]GalNAc
# Outline: as §1
# [11] = molecular target: Fuc(a1-2)Gal(b1-3)GlcNAc(b1-3)[Gal(b1-4)GlcNAc(b1-6)]Gal(b1-4)Glc
# Outline: as §1
# [12] = molecular target: Fuc(a1-2)Gal(b1-3)GlcNAc(b1-3)[Neu5Ac(a2-6)Gal(b1-4)GlcNAc(b1-6)]Gal(b1-4)Glc
# Outline: as §1
# [13] = molecular target: Fuc(a1-2)Gal(b1-3)GlcNAc6S
# Outline: as §1
# [14] = molecular target: Fuc(a1-2)Gal(b1-3)[Fuc(a1-4)]GlcNAc
# Outline: as §1
# [15] = molecular target: Fuc(a1-2)Gal(b1-3)[Fuc(a1-4)]GlcNAc(b1-2)Man(a1-3)[Fuc(a1-2)Gal(b1-3)[Fuc(a1-4)]GlcNAc(b1-2)Man(a1-3)]Man(b1-4)GlcNAc(b1-4)GlcNAc
# Outline: as §1
# [16] = molecular target: Fuc(a1-2)Gal(b1-3)[Fuc(a1-4)]GlcNAc(b1-2)Man(a1-3)[Fuc(a1-2)Gal(b1-3)[Fuc(a1-4)]GlcNAc(b1-2)Man(a1-6)]Man(b1-4)GlcNAc(b1-4)[Fuc(a1-6)]GlcNAc(b1-4)[Fuc(a1-6)]GlcNAc
# Outline: as §1
# [17] = molecular target: Fuc(a1-2)Gal(b1-3)[Fuc(a1-4)]GlcNAc(b1-3)[Fuc(a1-3)[Gal(b1-4)]GlcNAc(b1-6)]Gal(b1-4)Glc
# Outline: as §1
# [18] = molecular target: Fuc(a1-2)Gal(b1-3)[Fuc(a1-4)]GlcNAc(b1-3)[Gal(b1-4)GlcNAc(b1-6)]Gal(b1-4)Glc
# Outline: as §1
# [19] = molecular target: Fuc(a1-2)Gal(b1-4)Fuc(a1-3)]GlcNAc(b1-2)Man(a1-3)[Fuc(a1-2)Gal(b1-4)[Fuc(a1-3)]GlcNAc(b1-2)Man(a1-6)]Man(b1-4)GlcNAc(b1-4)GlcNAc
# Outline: as §1
# Fuc(a1-2)Gal(b1-4)Glc = molecular target: Fuc(a1-2)Gal(b1-4)Glc
# Outline: as §1
# Fuc(a1-2)Gal(b1-4)Glc6S = molecular target: Fuc(a1-2)Gal(b1-4)Glc6S
# Outline: as §1
# Fuc(a1-2)Gal(b1-4)GlcNAc = molecular target: Fuc(a1-2)Gal(b1-4)GlcNAc
# Outline: as §1
# [20] = molecular target: Fuc(a1-2)Gal(b1-4)GlcNAc(b1-2)Man
# Outline: as §1
# [21] = molecular target: Fuc(a1-2)Gal(b1-4)GlcNAc(b1-2)Man(a1-3)[Fuc(a1-2)Gal(b1-4)GlcNAc(b1-2)Man(a1-6)]Man(b1-4)GlcNAc(b1-4)GlcNAc
# Outline: as §1
# [22] = molecular target: Fuc(a1-2)Gal(b1-4)GlcNAc(b1-2)Man(a1-3)[Fuc(a1-2)Gal(b1-4)GlcNAc(b1-2)Man(a1-6)]Man(b1-4)GlcNAc(b1-4)[Fuc(a1-6)]GlcNAc
# Outline: as §1
# [23] = molecular target: Fuc(a1-2)Gal(b1-4)GlcNAc(b1-2)[Fuc(a1-2)Gal(b1-4)GlcNAc(b1-4)]Man(a1-3)[Fuc(a1-2)Gal(b1-4)GlcNAc(b1-2)Man(a1-6)]Man(b1-4)GlcNAc(b1-4)GlcNAc
# Outline: as §1
# [24] = molecular target: Fuc(a1-2)Gal(b1-4)GlcNAc(b1-3)Gal(b1-4)GlcNAc
# Outline: as §1
binder,measurement,setting,value
B1,glycan array binding signal (z-score),Fuc(a1-2)Gal,-0.149
same,glycan array binding signal (z-score),Fuc(a1-2)Gal(b1-3)GalNAc,-0.196
same,glycan array binding signal (z-score),[1],-0.127
same,glycan array binding signal (z-score),[2],-0.169
same,glycan array binding signal (z-score),[3],-0.075
same,glycan array binding signal (z-score),[4],-0.125
same,glycan array binding signal (z-score),[5],-0.18
same,glycan array binding signal (z-score),Fuc(a1-2)Gal(b1-3)GlcNAc,-0.15
same,glycan array binding signal (z-score),[6],-0.092
same,glycan array binding signal (z-score),[7],-0.094
same,glycan array binding signal (z-score),[8],0.216
same,glycan array binding signal (z-score),[9],-0.135
same,glycan array binding signal (z-score),[10],-0.177
same,glycan array binding signal (z-score),[11],-0.17
same,glycan array binding signal (z-score),[12],-0.143
same,glycan array binding signal (z-score),[13],-0.191
same,glycan array binding signal (z-score),[14],-0.218
same,glycan array binding signal (z-score),[15],-0.069
same,glycan array binding signal (z-score),[16],-0.124
same,glycan array binding signal (z-score),[17],-0.178
same,glycan array binding signal (z-score),[18],-0.156
same,glycan array binding signal (z-score),[19],-0.106
same,glycan array binding signal (z-score),Fuc(a1-2)Gal(b1-4)Glc,0.011
same,glycan array binding signal (z-score),Fuc(a1-2)Gal(b1-4)Glc6S,-0.178
same,glycan array binding signal (z-score),Fuc(a1-2)Gal(b1-4)GlcNAc,-0.174
same,glycan array binding signal (z-score),[20],-0.183
same,glycan array binding signal (z-score),[21],-0.085
same,glycan array binding signal (z-score),[22],-0.159
same,glycan array binding signal (z-score),[23],-0.163
same,glycan array binding signal (z-score),[24],-0.038

# — the supplement of paper PMC8728848
